# Assay results reported in the supplement of paper PMC8728848.
# This is one part of the list.
# What was measured:
# Assay in all cases: glycan array binding signal (z-score within array); higher = stronger binding
# Conditions in all cases: glycan notation: IUPAC condensed, linker removed
# Fuc(a1-2)Gal = target: Fuc(a1-2)Gal
# In short: (§1)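 The binding signal is a Z-score computed within each array and averaged over linkers. Arrays of the same protein sequence at different concentrations or buffers were also averaged together. Data originate from 3228 arrays in the Consortium for Functional Glycomics database, kept only where the protein sequence was available.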
# Fuc(a1-2)Gal(b1-3)GalNAc = target: Fuc(a1-2)Gal(b1-3)GalNAc
# In short: as §1
# [1] = target: Fuc(a1-2)Gal(b1-3)GalNAc(a1-3)[Fuc(a1-2)]Gal(b1-4)Glc
# In short: as §1
# [2] = target: Fuc(a1-2)Gal(b1-3)GalNAc(a1-3)[Fuc(a1-2)]Gal(b1-4)GlcNAc
# In short: as §1
# [3] = target: Fuc(a1-2)Gal(b1-3)GalNAc(b1-3)Gal
# In short: as §1
# [4] = target: Fuc(a1-2)Gal(b1-3)GalNAc(b1-3)Gal(a1-4)Gal(b1-4)Glc
# In short: as §1
# [5] = target: Fuc(a1-2)Gal(b1-3)GalNAc(b1-4)[Neu5Ac(a2-3)]Gal(b1-4)Glc
# In short: as §1
# Fuc(a1-2)Gal(b1-3)GlcNAc = target: Fuc(a1-2)Gal(b1-3)GlcNAc
# In short: as §1
# [6] = target: Fuc(a1-2)Gal(b1-3)GlcNAc(b1-2)Man(a1-3)[Fuc(a1-2)Gal(b1-3)GlcNAc(b1-2)Man(a1-6)]Man(b1-4)GlcNAc(b1-4)GlcNAc
# In short: as §1
# [7] = target: Fuc(a1-2)Gal(b1-3)GlcNAc(b1-2)Man(a1-3)[Fuc(a1-2)Gal(b1-3)GlcNAc(b1-2)Man(a1-6)]Man(b1-4)GlcNAc(b1-4)[Fuc(a1-6)]GlcNAc
# In short: as §1
# [8] = target: Fuc(a1-2)Gal(b1-3)GlcNAc(b1-3)Gal(b1-4)Glc
# In short: as §1
# [9] = target: Fuc(a1-2)Gal(b1-3)GlcNAc(b1-3)GalNAc
# In short: as §1
# [10] = target: Fuc(a1-2)Gal(b1-3)GlcNAc(b1-3)[Fuc(a1-2)Gal(b1-3)GlcNAc(b1-6)]GalNAc
# In short: as §1
# [11] = target: Fuc(a1-2)Gal(b1-3)GlcNAc(b1-3)[Fuc(a1-3)[Gal(b1-4)]GlcNAc(b1-6)]Gal(b1-4)Glc
# In short: as §1
# [12] = target: Fuc(a1-2)Gal(b1-3)GlcNAc(b1-3)[Gal(b1-4)GlcNAc(b1-6)]Gal(b1-4)Glc
# In short: as §1
# [13] = target: Fuc(a1-2)Gal(b1-3)GlcNAc(b1-3)[Neu5Ac(a2-6)Gal(b1-4)GlcNAc(b1-6)]Gal(b1-4)Glc
# In short: as §1
# [14] = target: Fuc(a1-2)Gal(b1-3)GlcNAc6S
# In short: as §1
# [15] = target: Fuc(a1-2)Gal(b1-3)[Fuc(a1-4)]GlcNAc
# In short: as §1
# [16] = target: Fuc(a1-2)Gal(b1-3)[Fuc(a1-4)]GlcNAc(b1-2)Man(a1-3)[Fuc(a1-2)Gal(b1-3)[Fuc(a1-4)]GlcNAc(b1-2)Man(a1-3)]Man(b1-4)GlcNAc(b1-4)GlcNAc
# In short: as §1
# [17] = target: Fuc(a1-2)Gal(b1-3)[Fuc(a1-4)]GlcNAc(b1-2)Man(a1-3)[Fuc(a1-2)Gal(b1-3)[Fuc(a1-4)]GlcNAc(b1-2)Man(a1-6)]Man(b1-4)GlcNAc(b1-4)GlcNAc
# In short: as §1
# [18] = target: Fuc(a1-2)Gal(b1-3)[Fuc(a1-4)]GlcNAc(b1-2)Man(a1-3)[Fuc(a1-2)Gal(b1-3)[Fuc(a1-4)]GlcNAc(b1-2)Man(a1-6)]Man(b1-4)GlcNAc(b1-4)[Fuc(a1-6)]GlcNAc(b1-4)[Fuc(a1-6)]GlcNAc
# In short: as §1
# [19] = target: Fuc(a1-2)Gal(b1-3)[Fuc(a1-4)]GlcNAc(b1-2)Man(a1-6)[Fuc(a1-2)Gal(b1-3)[Fuc(a1-4)]GlcNAc(b1-2)Man(a1-3)]Man(b1-4)GlcNAc(b1-4)[Fuc(a1-6)]GlcNAc
# In short: as §1
# [20] = target: Fuc(a1-2)Gal(b1-3)[Fuc(a1-4)]GlcNAc(b1-3)[Fuc(a1-3)[Gal(b1-4)]GlcNAc(b1-6)]Gal(b1-4)Glc
# In short: as §1
# [21] = target: Fuc(a1-2)Gal(b1-3)[Fuc(a1-4)]GlcNAc(b1-3)[Gal(b1-4)GlcNAc(b1-6)]Gal(b1-4)Glc
# In short: as §1
# [22] = target: Fuc(a1-2)Gal(b1-4)Fuc(a1-3)]GlcNAc(b1-2)Man(a1-3)[Fuc(a1-2)Gal(b1-4)[Fuc(a1-3)]GlcNAc(b1-2)Man(a1-6)]Man(b1-4)GlcNAc(b1-4)GlcNAc
# In short: as §1
# Fuc(a1-2)Gal(b1-4)Glc = target: Fuc(a1-2)Gal(b1-4)Glc
# In short: as §1
# Fuc(a1-2)Gal(b1-4)Glc6S = target: Fuc(a1-2)Gal(b1-4)Glc6S
# In short: as §1
# Fuc(a1-2)Gal(b1-4)GlcNAc = target: Fuc(a1-2)Gal(b1-4)GlcNAc
# In short: as §1
# [23] = target: Fuc(a1-2)Gal(b1-4)GlcNAc(b1-2)Man
# In short: as §1
# [24] = target: Fuc(a1-2)Gal(b1-4)GlcNAc(b1-2)Man(a1-3)[Fuc(a1-2)Gal(b1-4)GlcNAc(b1-2)Man(a1-6)]Man(b1-4)GlcNAc(b1-4)GlcNAc
# In short: as §1
binder,measurement,setting,value
OrysaEULS2 (Oryza sativa) (protein) MVYCRANPNYAMTARNGAVVLAPANPKDEYQHWIKDMRWSTSIKDEEGYPAFALVNKATGQAIKHSLGQSHPVRLVPYNPEVMDESVLWTESRDVGNGFRCIRMVNNIYLNFDAFHGDKYHGGVRDGTDIVLWKWCEGDNQRWKIQPYYILEQKLISEEDLNSAVDHHHHHH,glycan array binding signal (z-score),Fuc(a1-2)Gal,-0.182
same,glycan array binding signal (z-score),Fuc(a1-2)Gal(b1-3)GalNAc,-0.205
same,glycan array binding signal (z-score),[1],-0.196
same,glycan array binding signal (z-score),[2],-0.16
same,glycan array binding signal (z-score),[3],-0.191
same,glycan array binding signal (z-score),[4],-0.184
same,glycan array binding signal (z-score),[5],-0.2
same,glycan array binding signal (z-score),Fuc(a1-2)Gal(b1-3)GlcNAc,-0.191
same,glycan array binding signal (z-score),[6],-0.098
same,glycan array binding signal (z-score),[7],-0.159
same,glycan array binding signal (z-score),[8],-0.207
same,glycan array binding signal (z-score),[9],-0.199
same,glycan array binding signal (z-score),[10],-0.192
same,glycan array binding signal (z-score),[11],-0.165
same,glycan array binding signal (z-score),[12],-0.191
same,glycan array binding signal (z-score),[13],-0.185
same,glycan array binding signal (z-score),[14],-0.215
same,glycan array binding signal (z-score),[15],-0.163
same,glycan array binding signal (z-score),[16],-0.184
same,glycan array binding signal (z-score),[17],-0.074
same,glycan array binding signal (z-score),[18],-0.187
same,glycan array binding signal (z-score),[19],-0.17
same,glycan array binding signal (z-score),[20],-0.17
same,glycan array binding signal (z-score),[21],-0.17
same,glycan array binding signal (z-score),[22],0.116
same,glycan array binding signal (z-score),Fuc(a1-2)Gal(b1-4)Glc,-0.164
same,glycan array binding signal (z-score),Fuc(a1-2)Gal(b1-4)Glc6S,-0.194
same,glycan array binding signal (z-score),Fuc(a1-2)Gal(b1-4)GlcNAc,-0.204
same,glycan array binding signal (z-score),[23],-0.203
same,glycan array binding signal (z-score),[24],0.702
